Assay results as given in the RNAGym collection of RNA variant scans (doi:10.7554/elife.90254).
Read counts are not given, so values of variants with three or more changes are uncertain.

B1: OR4K15 (parent)
chain: GUUAACGGUCAUAGGCCAUGGAAACUAGGAGCACCAUUUCGCUGCCAGUGAAGAAAUGAACAAAGAAAAUCUGGGCCAGGCAGGCAUCAAAAGAAAUAGUCUUGCGCUCAACCAGAAAGUCUGUAAUCAUUUUAAGGGUA

Variants of: B1
Assay: self-cleavage, relative activity (ratio to wild type); higher = more cleavage; in vitro, sequencing; the parent is a self-cleaving ribozyme
With A47G U49C A56G C61U the self-cleavage was 1.24.
In the case of U37C A68G U108C, the self-cleavage is reported as 0.01.
In the case of A11G G58U A116G U131C, the self-cleavage is reported as 0.29.
A23G U37G A52G A82G showed a self-cleavage of 0.28.
With A36U A63G A82G the self-cleavage was 0.72.
For A30G G41A A64U A82G, the self-cleavage was 0.17.
U12C A62G A67G A95G gave a self-cleavage of 1.34.
Variant A66G A82U A96U has a self-cleavage of 0.25.
C46A C121U U131C showed a self-cleavage of 0.7.
A24U U43A A59G U133C gave a self-cleavage of 0.6.
For A56C A63G A116G, the self-cleavage was 0.7.
In the case of A98G A111U U120C, the self-cleavage is reported as 0.
For U2C A52G A96G, the self-cleavage was 2.06.
With U2G U100C A116G the self-cleavage was 1.94.
A51G A67G A86U A92G U103C A111G gave a self-cleavage of 0.03.
Work on A62U G79A A111U yielded a self-cleavage of 0.02.
In the case of A11G U72G A111G A117G, the self-cleavage is reported as 0.03.
C16U A36G A117G showed a self-cleavage of 1.5.
Work on U26A U43C A56G A82U A117G A135G yielded a self-cleavage of 0.2.
G75U A116G U124C U132C A135G showed a self-cleavage of 0.
Variant A13G A23G A52U A89G A116G has a self-cleavage of 0.77.
Variant U9C A22G A23G A126U has a self-cleavage of 0.96.
In the case of A22G G44A A86U, the self-cleavage is reported as 1.92.
In the case of A51G A66G U127C, the self-cleavage is reported as 1.33.
U43A U120C U130C U132C gave a self-cleavage of 0.24.
A18G U38C U139A showed a self-cleavage of 0.85.
Variant A51G A67G U70C has a self-cleavage of 0.6.
Work on U43C U87C A95G U103C G123A yielded a self-cleavage of 0.54.
For A60G U72C U103C, the self-cleavage was 0.02.
Work on U19A A23U A82G U87C A111G yielded a self-cleavage of 0.
In the case of U3A A92G U122A, the self-cleavage is reported as 0.86.
Work on A11C A18G A23G U49C A67G A82G yielded a self-cleavage of 0.36.
For U26C A62G A64G U108C, the self-cleavage was 0.04.
Variant A4G U26C A116G has a self-cleavage of 1.21.
For C46U A86U G136U, the self-cleavage was 2.57.
Work on U9A U108C A116U yielded a self-cleavage of 0.
A67G A94U A126G showed a self-cleavage of 0.82.
Work on G21U A94G U108C A129G yielded a self-cleavage of 0.
Work on U43A A111G A129G yielded a self-cleavage of 0.04.
With A69G A96G U124C the self-cleavage was 0.74.
A94G A117G U122C showed a self-cleavage of 1.59.
For A67G A91G U122C, the self-cleavage was 2.56.
Variant U2C A78G A118G U130C has a self-cleavage of 0.09.
Variant A18G G79A A118G has a self-cleavage of 0.08.
With U19G A55G A59G U103C C105A A110G the self-cleavage was 0.02.
Variant A30G A47U A92G U108A has a self-cleavage of 0.04.
A24G A27G G73A gave a self-cleavage of 0.15.
U3C A51G A82U A89U A116G showed a self-cleavage of 0.12.
For U72C A92G U132A G137A, the self-cleavage was 0.15.
U43C A59G A116G showed a self-cleavage of 0.33.
Variant G15U A56G U120C U130C has a self-cleavage of 0.51.
A22G A55G A96G gave a self-cleavage of 1.23.
With U19C A30G A111G the self-cleavage was 0.1.
For U3C A36U A96G A116C, the self-cleavage was 0.49.
For A4G A47U U131C, the self-cleavage was 0.3.
U12C A24G U37C U38C A89G C113U gave a self-cleavage of 0.11.
In the case of A33U A95G U108C A110G U130C, the self-cleavage is reported as 0.
For A11U A59G A90G, the self-cleavage was 1.13.
For A82G A110G A116G A135G, the self-cleavage was 0.22.
For A36G A47G A67G G75C, the self-cleavage was 0.14.
Work on A18G A24G U38C A114G yielded a self-cleavage of 0.9.
With U12C U19C A47G the self-cleavage was 1.16.
With U3C U12A G74U the self-cleavage was 0.2.
Variant A33G U43A A117G A135G has a self-cleavage of 1.71.
U9A U103G A111G gave a self-cleavage of 0.04.
Work on A52G U97A U120A yielded a self-cleavage of 2.96.
Work on U19C U70C A125U yielded a self-cleavage of 0.52.
Variant A86U U100A U108C G119A has a self-cleavage of 0.
In the case of A51G U122C A129U, the self-cleavage is reported as 1.21.
With U12C A110G A118G U133C the self-cleavage was 0.22.
For A59G A66G C76U, the self-cleavage was 0.06.
In the case of U2C U102C U132A, the self-cleavage is reported as 1.14.
Work on A13U U37C A78U U133C yielded a self-cleavage of 0.47.
In the case of U108C A117G A126G, the self-cleavage is reported as 0.01.
U19A A94G A114U showed a self-cleavage of 0.08.
Variant U72C A92G A116G has a self-cleavage of 0.14.
With U12A A18U U43C A51G the self-cleavage was 1.02.
Work on A23G A66G A78G C112U yielded a self-cleavage of 0.02.
With U12C A24G A52C A59U U108C U127C the self-cleavage was 0.
U12C A13G G48A A51G gave a self-cleavage of 1.7.
With U43C U100C A116G A126G A140U the self-cleavage was 0.9.
In the case of A62G A90G A117G, the self-cleavage is reported as 1.27.
U39C U49C A68G gave a self-cleavage of 1.57.
Variant A30G A51G A82U has a self-cleavage of 0.11.
Work on U43C A54G A59G A78G U103C A116U yielded a self-cleavage of 0.05.
In the case of U38C A62G A69G A82U A91G, the self-cleavage is reported as 0.04.
In the case of U49C A90G U130C, the self-cleavage is reported as 0.55.
U9C U100A A126G gave a self-cleavage of 0.37.
For A30G G50U A94G U132C, the self-cleavage was 1.02.
U57C U108C A110G gave a self-cleavage of 0.
In the case of C34G U49A A55G G74A U100C A135G, the self-cleavage is reported as 0.13.
Work on A22U C61U A92G U102C A129U yielded a self-cleavage of 0.66.
With A60G A67U A95G the self-cleavage was 2.14.
A18G A47G A111G gave a self-cleavage of 0.03.
In the case of G41A U72A C105G, the self-cleavage is reported as 0.01.
A22G G44A A52G A96G showed a self-cleavage of 1.69.
In the case of A51U U108G A140G, the self-cleavage is reported as 0.01.
A52G U57C U133A gave a self-cleavage of 0.86.
A27G A62U U132C gave a self-cleavage of 1.27.
A33G A62G A117G showed a self-cleavage of 1.42.
A36G A89G A129G A135G showed a self-cleavage of 1.17.
In the case of U9A U57C A110U U127C, the self-cleavage is reported as 0.13.
Work on A56G U70C A86G A95G U131A yielded a self-cleavage of 0.81.
For U43C A62G A86U A92U, the self-cleavage was 1.55.
Variant A23G A51G U122A has a self-cleavage of 0.93.
With A69G U100C A116U the self-cleavage was 0.67.
A22G A56G A69G gave a self-cleavage of 0.98.
In the case of U39C A47U A64G A129C, the self-cleavage is reported as 0.7.
For A67G A117G U130C, the self-cleavage was 1.4.
Variant A11G U57C U122C G137A has a self-cleavage of 0.98.
A30G G50A A59G A68U gave a self-cleavage of 1.45.
A54G A64U A89G showed a self-cleavage of 0.41.
With A27G U39C A69G A89G A110U the self-cleavage was 0.78.
Variant A11G U49A A59G A68G has a self-cleavage of 0.51.
With A23G A33U A54U A94G A96G the self-cleavage was 1.22.
For A52U U70C U102C U122C U130C U131C, the self-cleavage was 1.23.
In the case of A24G U39C A60G A96G, the self-cleavage is reported as 1.67.
With U2C A59U A91G U122C A140G the self-cleavage was 0.
A24G U57C C71U A86U showed a self-cleavage of 0.29.
A24G U43A A66U showed a self-cleavage of 1.77.
Work on U2C U38C U120C yielded a self-cleavage of 0.22.
A55G U102C U122C gave a self-cleavage of 1.65.
In the case of A24G A78G G84C U108A U130G, the self-cleavage is reported as 0.01.
In the case of G53A A86G A125G, the self-cleavage is reported as 0.57.
U2C A69U A111G G136A showed a self-cleavage of 0.04.
With A30U A96G A140U the self-cleavage was 1.48.
In the case of A60G U87C A111G, the self-cleavage is reported as 0.05.
In the case of A5G U100C U124C A125G, the self-cleavage is reported as 1.42.
Variant U3C A90G A94U has a self-cleavage of 0.85.
U12A A56G A63G gave a self-cleavage of 1.14.
For U100C U103C A114U, the self-cleavage was 0.1.
Work on A22G A24G A51U yielded a self-cleavage of 1.19.
Work on U12A A60U A66U U72A U133C yielded a self-cleavage of 0.46.
For A86G U87C A129U, the self-cleavage was 0.36.
Variant A11U A78C U108C U120A has a self-cleavage of 0.
In the case of A60U A86U U132C, the self-cleavage is reported as 2.19.
U9C U38A U108A gave a self-cleavage of 0.09.
Variant A56G U108A U130C has a self-cleavage of 0.01.
For U9C A22G A95G, the self-cleavage was 1.48.
Work on A30G C40A A96G yielded a self-cleavage of 1.2.
With A47G A51G A86G the self-cleavage was 0.48.
U19C A82G A118G showed a self-cleavage of 0.15.
Variant A47G A64G U72C G79A A90G A125G has a self-cleavage of 0.02.
In the case of A4G A60G A89G, the self-cleavage is reported as 1.24.
A60G A82G A92G A95G A140U gave a self-cleavage of 0.32.
A68G U108A U133C gave a self-cleavage of 0.03.
Variant U49C A60G A66G A95G has a self-cleavage of 1.1.
Variant G48U A54G U102C has a self-cleavage of 2.14.
With U12C A52G A59G the self-cleavage was 0.34.
For A69G A111G A140C, the self-cleavage was 0.02.
For A13G U87C A95G A111G A125G, the self-cleavage was 0.
Variant A22G A98G U108C has a self-cleavage of 0.03.
Variant A5G A36G A51U A118G has a self-cleavage of 0.44.
With A23G A56G U97A A126G the self-cleavage was 1.36.
With U3C U37C A82U the self-cleavage was 0.48.
A47C A66U A94G showed a self-cleavage of 1.88.
With A30G A94U A98G U124C the self-cleavage was 0.47.
Variant A27U A92G U120C A125G has a self-cleavage of 0.23.
For U9C A33G U49C A68G U122A, the self-cleavage was 0.57.
A23U U37C A47G A86U gave a self-cleavage of 0.95.
In the case of A33G U43A U132C, the self-cleavage is reported as 0.92.
Work on U2C A59G A110G C112A yielded a self-cleavage of 0.03.
For A68G A92G A94U U130C, the self-cleavage was 0.72.
For A5G A56G A118C U120G, the self-cleavage was 0.29.
Work on G15U A52G C85U U87C yielded a self-cleavage of 1.47.
Variant A13U A86G U97A has a self-cleavage of 0.69.
Variant A51G A64U U72A A86G U87C A111G has a self-cleavage of 0.02.
